Among all 310,000 compounds or so, about 2,200 (0.71%) showed an effect of 50% or more. The effect is printed as a negative number. Some of the results follow.
Target: human ether-à-go-go-related gene (hERG) potassium channel (human, UniProt Q12809)
Assay: primary screen, population patch clamp on CHO cells stably expressing hERG

Chain of human ether-à-go-go-related gene (hERG) potassium channel (Q12809 whole entry, looked up): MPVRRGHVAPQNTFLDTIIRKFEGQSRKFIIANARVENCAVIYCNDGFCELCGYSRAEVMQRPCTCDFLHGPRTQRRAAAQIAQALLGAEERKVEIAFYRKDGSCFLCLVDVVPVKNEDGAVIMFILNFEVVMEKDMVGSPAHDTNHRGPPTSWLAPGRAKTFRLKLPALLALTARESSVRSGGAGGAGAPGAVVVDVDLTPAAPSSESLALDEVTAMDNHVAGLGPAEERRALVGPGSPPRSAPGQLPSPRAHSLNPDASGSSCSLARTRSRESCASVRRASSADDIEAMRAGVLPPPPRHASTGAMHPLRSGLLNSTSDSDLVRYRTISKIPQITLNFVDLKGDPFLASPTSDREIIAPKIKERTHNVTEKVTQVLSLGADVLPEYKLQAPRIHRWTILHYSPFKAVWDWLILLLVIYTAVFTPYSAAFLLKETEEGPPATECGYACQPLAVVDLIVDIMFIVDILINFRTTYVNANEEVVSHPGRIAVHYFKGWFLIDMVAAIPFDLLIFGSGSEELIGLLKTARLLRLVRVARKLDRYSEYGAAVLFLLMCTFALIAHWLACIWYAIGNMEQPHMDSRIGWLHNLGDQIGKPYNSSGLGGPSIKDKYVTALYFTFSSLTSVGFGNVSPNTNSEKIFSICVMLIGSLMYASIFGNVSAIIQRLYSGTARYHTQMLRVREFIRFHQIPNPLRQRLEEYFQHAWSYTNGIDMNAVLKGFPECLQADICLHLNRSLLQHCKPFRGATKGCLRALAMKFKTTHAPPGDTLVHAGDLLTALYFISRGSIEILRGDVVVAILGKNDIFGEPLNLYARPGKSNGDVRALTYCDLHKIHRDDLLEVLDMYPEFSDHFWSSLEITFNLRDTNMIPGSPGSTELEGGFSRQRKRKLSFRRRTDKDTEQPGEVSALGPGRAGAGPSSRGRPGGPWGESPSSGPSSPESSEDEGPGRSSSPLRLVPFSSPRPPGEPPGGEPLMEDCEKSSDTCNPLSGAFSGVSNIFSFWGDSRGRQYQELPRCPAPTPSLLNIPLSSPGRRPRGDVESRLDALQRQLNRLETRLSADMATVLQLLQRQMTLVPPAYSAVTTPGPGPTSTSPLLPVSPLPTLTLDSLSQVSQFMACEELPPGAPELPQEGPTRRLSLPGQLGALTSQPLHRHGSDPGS

Row | Structure (SMILES) | hERG current change (%, negative = inhibition) at 1uM [%]
1 | Cc1nc(SCC(=O)NC(=O)NCc2ccco2)nc(C)c1C | 8.09
2 | COc1ccc(-c2csc(-n3cccn3)n2)cc1 | 18
3 | CCOC(=O)c1c(S(=O)(=O)NCCCc2ccco2)c(C)n(C)c1C | 10.1
4 | COC(=O)c1ccccc1NC(=O)Cn1cnc2c1c(=O)n(C)c(=O)n2C | 11
5 | CC(C)(C)OC(=O)N1CCC[C@H]1C(=O)Nc1ccc(C#N)cc1 | 4.26
6 | Cc1ccc(C(=O)NCCNS(=O)(=O)c2ccccc2[N+](=O)[O-])cc1 | 11.6
7 | CCOC(=O)C1=C(COC(=O)COc2cccc(C)c2C)NC(=O)NC1C (centres unmarked) | -1.08
8 | O=C(O)c1cccnc1SCc1cccc(Cl)c1 | 5.06
9 | CCN(CC)C(=O)Cn1cc(C(=O)C(=O)NCCCn2ccnc2)c2ccccc21 | 10.9
10 | COc1ccc(Br)cc1/C=N/n1c(-c2ccccc2)n[nH]c1=S | 16.6
11 | Cc1ccc(Cl)c(OCC(=O)NCc2ccco2)c1 | 6.6
12 | Cc1ccc(CSCC(=O)NCc2ccc3c(c2)OCO3)cc1 | 5.01
13 | Cc1csc2nc(CSc3nncn3-c3ccccc3)c(Br)n12 | 5.2
14 | CC(=O)c1cccc(NC(=O)c2oc(C)nc2C)c1 | -2.48
15 | COc1ccc(/C=C/C(=O)Nc2cc(S(=O)(=O)N3CCOCC3)ccc2N2CCCC2)cc1OC | 4.57
16 | CN(C)CCNC(=O)c1ccc(-c2nn(C)c(=O)c3ccccc23)cc1 | 0.154
17 | COc1cccc(NC(=O)CCC2CCN(C(=O)c3ccc(C(C)=O)s3)CC2)c1 | -4.16
18 | O=C(O)C1CCN(c2ccc(S(=O)(=O)N3CCC(C(=O)O)CC3)cc2[N+](=O)[O-])CC1 | 9.68
19 | Cc1cn(S(=O)(=O)c2ccccc2[N+](=O)[O-])cn1 | 18.2
20 | COc1ccc(-n2nc(C(=O)NCC(=O)NC3CCCCCC3)c3ccccc3c2=O)c(OC)c1 | 11.5
21 | N#CCCn1cc(C(=O)N2CCCCC2)c(-c2cccc([N+](=O)[O-])c2)n1 | 15.5
22 | CC(C)(C)c1ccc(OCCCn2ccnc2)cc1 | 13
23 | OCC[C@@H]1C[C@H](O)[C@@H](O)[C@]2(CCCc3ccccc3O2)O1 | 24.1

Row | Structure (SMILES) | hERG current change (%, negative = inhibition) at 1uM [%]
24 | CC(Sc1nc2ccccc2n1C)C(=O)NC(c1ccccc1)c1ccccc1 (centres unmarked) | 8.92
25 | CC(=O)Oc1cccc(-c2nc3ccccc3c(=O)o2)c1 | 10.6
26 | CSc1ccccc1NC(=O)Nc1cccc(F)c1 | 5.9
27 | O=C(CSc1ncc(-c2ccccc2)[nH]1)Nc1ccccc1 | -0.253
28 | CCOCc1nnc(NC(=O)c2cccs2)s1 | 6.37
29 | COc1cc(CNc2ccc(C(=O)O)cc2)cc(Br)c1OCC(=O)NC(C)(C)C | 9.4
30 | CCOC(=O)C1C(=O)NC(SC)=C(C#N)C1c1ccccc1F (centres unmarked) | -0.132
31 | CC(C)(CO)NC(=S)NCc1ccco1 | 5.79
32 | CC(=O)Nc1ccccc1C(=O)C(=O)Nc1cccc(C(=O)N2CC(C)CC(C)C2)c1 (centres unmarked) | 2.9
33 | CCOC(=O)c1oc2cc(O)cc(C)c2c(=O)c1-c1cscn1 | -6.8
34 | O=C(/C=C/c1cccs1)N1CCN(c2ccc(F)cc2)CC1 | 4.04
35 | CC1CCCCN1S(=O)(=O)c1cn(C)c(=O)n(C)c1=O (centres unmarked) | -0.331
36 | Cc1ccc(S(=O)(=O)NCC(=O)OC(C)C(=O)NC(=O)NC2CCCCC2)cc1C (centres unmarked) | 9.6
37 | O=C(NNC(=O)c1cccs1)c1ccc([N+](=O)[O-])cc1 | 12.9
38 | Cl.N=C(N)c1ccccc1.O | 17.6
39 | O=C(COC(=O)c1ccc(S(=O)(=O)N2CCCC2)cc1)Nc1cccc(Br)c1 | -12
40 | O=C(CSc1nnc(-c2ccco2)o1)Nc1c(F)cccc1F | 0.413
41 | O=C(Nc1cccc(S(=O)(=O)Nc2ccccc2Cl)c1)c1ccc(N2CCCC2)c([N+](=O)[O-])c1 | 13.1
42 | CN(Cc1cnn(C)c1)Cc1nc(COc2ccccc2)no1 | 19.3
43 | CCOC(=O)C1C(c2ccccc2Cl)NC(=O)N(C)C1(O)C(F)(F)F (centres unmarked) | 10.1
44 | Cc1cc(C)c2[nH]c(=O)c(CN(Cc3ccccc3)C(=S)NCCCN(C)C)cc2c1 | -17.7
45 | N#Cc1c(N)oc(-c2cccs2)c1-c1cccs1 | 6.43
46 | CCOC(=O)N1CCN(Cc2nc3cc([N+](=O)[O-])ccc3n2C)CC1 | 5.08

Row | Structure (SMILES) | hERG current change (%, negative = inhibition) at 1uM [%]
47 | N=C1/C(=C\c2ccc(SCc3ccccc3)o2)C(=O)N=C2SC(CC(=O)N3CCOCC3)=NN12 | 2.34
48 | C=CCNC(=O)C1=NOC(CNC(=O)c2c(-c3ccccc3Cl)noc2C)C1 (centres unmarked) | 18.3
49 | CC(C)C[NH+]=c1cc(-c2ccccc2)oc2ccc(Cl)cc12.F[B-](F)(F)F | -81.1
50 | C/C(=N\NC(=O)c1ccccc1NC(=O)c1ccc(Cl)cc1)c1ccncc1 | 10.3
51 | CCOc1ccc(NC(=O)CNS(=O)(=O)c2c(C)cc(C)cc2C)cc1 | 16.1
52 | COc1cc(C(=O)N2C[C@H]3CC[C@H]2C3)ccc1OC1CCN(C(C)=O)CC1 | 10.5
53 | COc1ccc(NC(=O)CSc2nc(N)c(NC(=O)c3ccccc3F)c(=O)[nH]2)cc1 | 5.08
54 | O=C(COC(=O)c1cnc(Cl)c(Cl)c1)NCc1cccs1 | 6.12
55 | CCOc1ccc(N2CC(C(=O)NCc3nnnn3-c3ccc(C)c(C)c3)CC2=O)cc1 (centres unmarked) | 10.2
56 | O=C(Nc1ccc(-c2nc3ccccc3[nH]2)cc1)c1ccc2c(c1)OCO2 | 9.1
57 | Cc1cc(Cl)ccc1OCC(=O)Nc1ccccc1N1CCOCC1 | 16.3
58 | O=C(COC(=O)C1=COCCO1)Nc1ccc2c(c1)OCO2 | 8.46
59 | CCOC(=O)c1ccc(S(=O)(=O)NCC[NH+]2CCOCC2)cc1.[Cl-] | 27.2
60 | CNc1cccc2c1C(=O)c1ccccc1C2=O | 5.62
61 | NS(=O)(=O)c1ccc(NC(=S)Nc2ccc(S(=O)(=O)N3CCCC3)cc2)cc1 | 13.3
62 | O=C(CSc1nncs1)Nc1ccc2[nH]c(=O)[nH]c2c1 | 6.04
63 | CCC1(C)SC(N)=NN1C(C)=O (centres unmarked) | 9.52
64 | COC(=O)c1sc(NC(=O)c2ccc(OC)cc2OC)nc1C | 14.8
65 | O=C(CSc1nnc(-c2ccncc2)o1)Nc1ccccc1Cl | 12.8
66 | CN1CCN(c2ccc(S(=O)(=O)N3CCCCC3)cc2NC(=O)Cc2ccccc2F)CC1 | 2.47
67 | Cc1cccc(NC(=S)N/N=C/c2ccc(Cl)c([N+](=O)[O-])c2)c1 | 5.81
68 | CC(OC(=O)c1n[nH]c2ccccc12)C(=O)NC1CCCCC1C (centres unmarked) | 5.39
69 | CCOC(=O)c1sc(NC(NC(=O)c2ccco2)(C(=O)OC)C(F)(F)F)nc1C (centres unmarked) | 10.2

Row | Structure (SMILES) | hERG current change (%, negative = inhibition) at 1uM [%]
70 | COc1ccc(S(=O)(=O)NNC(=O)C2COc3ccccc3O2)cc1[N+](=O)[O-] (centres unmarked) | 15
71 | COc1ccc(Cc2nnc(SCC(=O)N(C)CC(=O)Nc3ccc(C)cc3)o2)cc1 | 4.06
72 | S=c1sc2c(N3CCN(Cc4ccccc4)CC3)ncnc2n1-c1ccccc1 | -5.55
73 | C=CCN(CC=C)CCOc1ccc(C)cc1[N+](=O)[O-].O=C(O)C(=O)O | -62.5
74 | Cc1cccc(N(C(=O)c2csnn2)C(C(=O)NCc2ccccc2)c2ccc(C)o2)c1 (centres unmarked) | -0.187
75 | Cc1ccc2nc(NC(=O)COC(=O)c3ccccn3)sc2c1 | -10.4
76 | CCOc1ccc(C/C(N)=N/n2cnnc2)cc1 | -0.465
77 | O=C(c1cc(-c2ccc(Cl)cc2)n(-c2cc(Cl)ccc2Cl)n1)N1CCOCC1 | -3.98
78 | COc1cccc2cc(C(=O)N3CCCCCCC3)c(=O)oc12 | 7.82
79 | CSc1ncc(-c2ccccc2)cn1 | 10.5
80 | COc1cc(-c2nnc(SCC#CCO)o2)cc(OC)c1OC | 5.22
81 | CC(C)OCCCNC(=S)Nc1ccc2nc3n(c(=O)c2c1)CCCCC3 | 0.691
82 | O=C(Nc1cccc(NC(=O)c2ccc(Cl)cc2Cl)c1)c1cccnc1 | 16.5
83 | O=C(CC1C(=O)NCCN1C(=O)Nc1ccccc1)Nc1ccc2c(c1)OCO2 (centres unmarked) | 16.4
84 | CN(C1CCCCC1)S(=O)(=O)c1ccc(-c2ccccn2)s1 | 1.67
85 | Cc1ccc(N(Cc2ccc(C(=O)NCC3CCCO3)cc2)S(C)(=O)=O)cc1C (centres unmarked) | 2.82
86 | O=C(CCC(=O)NNC(=O)Nc1ccc(Cl)cc1)NCc1ccccc1 | 12.8
87 | COc1ccccc1N(C)S(=O)(=O)c1ccc(C(=O)NC2=NCCS2)cc1 | 6.97
88 | O=C(O)CC1S/C(=N\N=C/c2ccccc2)N(c2ccc(O)cc2)C1=O (centres unmarked) | 8.02
89 | OC(CN1CCNCC1)Cn1ccc2ccccc21 (centres unmarked) | 7.24

Reference: publication PMC4336329 (PLoS ONE, 2015)
